From PubChem BioAssay AID624417 (National Center for Advancing Translational Sciences (NCATS), 2012)
Screen size: about 410,000 compounds; about 6,400 (1.6%) were called active. The inconclusive results got no clear call from the source; some entries with a clear call stand among them for comparison. Calls come from the whole dose curve; as a rule, active = well fitted inhibition curve with a large enough effect; inconclusive = small, poorly fitted or top-dose-only effect; inactive = no such curve, though single readings can be large or run the other way. No potency is given beside an inconclusive call; the fits are too rough.

biological target: Glucagon-like peptide 1 receptor (Homo sapiens) (UniProt P43220); assay: qHTS of GLP-1 Receptor Inverse Agonists (Inhibition Mode); settings: HEK293 GLP-1R CRE-luciferase, luminescence, 24 h, GLP-1R form is constitutively active; activity change, negative = inhibition: at 38.3 µM (top of the series) unless noted; note: nearly all actives have a fitted effect of over 55% in size
Sequence of UniProt P43220 (P43220 whole entry, looked up): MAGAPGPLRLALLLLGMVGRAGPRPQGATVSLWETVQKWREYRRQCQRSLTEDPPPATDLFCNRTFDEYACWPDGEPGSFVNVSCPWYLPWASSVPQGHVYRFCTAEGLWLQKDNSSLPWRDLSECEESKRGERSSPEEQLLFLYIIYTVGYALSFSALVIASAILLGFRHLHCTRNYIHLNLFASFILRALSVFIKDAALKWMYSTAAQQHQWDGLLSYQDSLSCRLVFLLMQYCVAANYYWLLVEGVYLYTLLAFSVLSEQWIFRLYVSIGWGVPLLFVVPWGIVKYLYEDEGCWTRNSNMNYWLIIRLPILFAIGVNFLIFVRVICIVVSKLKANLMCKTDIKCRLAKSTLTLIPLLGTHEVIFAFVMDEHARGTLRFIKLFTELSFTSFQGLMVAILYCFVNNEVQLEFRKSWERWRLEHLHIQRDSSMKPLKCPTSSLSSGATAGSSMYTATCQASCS
Outline: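 Stable HEK293 clone (constitutively active GLP-1R + cAMP-response luciferase); 200 cells/uL plated, 12 h pre-culture, compound 24 hr, 37 deg C/5% CO2; detection reagent 12 min RT; luminescence.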
% is set by controls: 0 for no effect and ±100 for the full control effect; potency is the fitted concentration of half-maximal effect; tags give direction and shape of the fitted curve.

Structure (SMILES)	Potency	activity change, negative = inhibition
COc1cc(OC)cc(C(=O)Nc2ccc(CN3CCCCC3)cc2)c1	inconclusive [inhibitor, single point]	–
Cc1ccc(NC(=O)C(OC(=O)c2ccc(O)cc2)c2ccccc2)cc1Cl (stereo not drawn)	inactive	–
Cc1ccc(-n2c(=S)sc3c(=O)n(-c4ccc(F)cc4)c(SCC(=O)O)nc32)cc1C	inactive	–
Nc1ccc(NC(=O)NC2CCCCC2)cc1	inactive	–
O=C(CCS(=O)(=O)c1ccccc1)N(Cc1cccnc1)c1nc2ccc(F)cc2s1	inactive	–
Cc1ccc(C)c(CSc2nnc(C)n3c2cc2sccc23)c1	inconclusive [inhibitor, partial curve, poor fit]	–
COc1ccc(-c2cnc(C)o2)cc1S(=O)(=O)Nc1ccc(OC(F)(F)F)cc1	inconclusive [inhibitor, single point]	–
O=S(=O)(c1ccc(Cl)s1)N1CCN(C/C=C/c2ccccc2)CC1	inconclusive [inhibitor, single point]	–
CC(C)C(=O)Nc1nc2c(s1)CC(C(C)(C)C)CC2 (stereo not drawn)	inconclusive [inhibitor, single point]	–
CCn1cc(C(=O)NCc2cccc(F)c2)c(=O)c2cc(F)c(N3CCN(C(=O)c4ccco4)CC3)cc21	inconclusive [inhibitor, partial curve, poor fit]	–
CCOc1ncccc1C(=O)OC(C)C(=O)Nc1ccc(Cl)cn1 (stereo not drawn)	inactive	–
Cc1ccc(CC(=O)O/N=C(\N)Cc2ccc([N+](=O)[O-])cc2)cc1	inconclusive [inhibitor, single point]	–
CC1(C)CC2=C(CO1)C(=S)NC(c1ccccc1)N2CC1CCCO1 (stereo not drawn)	inactive	–
O=C(NCC(c1ccco1)N1CCc2ccccc2C1)c1cccc(F)c1 (stereo not drawn)	inconclusive [inhibitor, single point]	–
Cc1ccc(NC(=O)CNC(=O)C23CC4CC(CC(C4)C2)C3)nc1	inactive	–
O=C(CN1CCN(C(=O)c2ccccc2)CC1)Nc1ccc(Cl)cc1F	inactive	–
COC(=O)c1ccc(N2CN=C(c3ccc(C)cc3)NC2=S)cc1	inconclusive [inhibitor, partial curve, poor fit]	–
COc1cc(C)ccc1S(=O)(=O)N1CCCCCC1	inconclusive [inhibitor, single point]	–
C/C(CC(C)(C)C1CCCCC1)=N\NC(N)=S	inconclusive [inhibitor, partial curve, poor fit]	–
Cn1c(=O)c2c(nc(NCc3ccco3)n2Cc2ccccc2Cl)n(C)c1=O	inactive	–
COc1ccc(-n2nnnc2SC(C)C(=O)NCC(=O)Nc2ccc(F)c(F)c2F)cc1 (stereo not drawn)	inconclusive [inhibitor, partial curve]	–
Cc1cc(C)c2c(CCl)cc(=O)oc2c1	inconclusive [inhibitor, partial curve, poor fit]	–
O=C1OCC(CO)(CO)N=C1NNc1ccccc1[N+](=O)[O-]	inconclusive [inhibitor, partial curve, poor fit]	–

Structure (SMILES)	Potency	activity change, negative = inhibition
CCOC(=O)COc1ccc2c(c1)c(C(C)=O)c(C)n2-c1ccc(OC)cc1	–	inconclusive: -65.2% [inhibitor]
CCN(CC)CCNc1ncnc2c1sc1nc(N3CCCC3)c3c(c12)CC(C)(C)OC3	inconclusive [inhibitor, single point]	–
COc1cc2ccccc2cc1C(=O)N(CCN(C)C)c1nc2c(C)cccc2s1	inconclusive [inhibitor, full curve, poor fit]	–
O=C(NCc1ccc(F)cc1)C(=O)Nc1ccc2nc3n(c(=O)c2c1)CCCCC3	inactive	–
CCOc1ccc(CC(=O)NCc2ccc3c(c2)CCN3C(=O)c2ccccc2)cc1OCC	inactive	–
C=C(C)C1Cc2c(C)nn(-c3cccc4ccccc34)c2C1 (stereo not drawn)	inconclusive [inhibitor, partial curve, poor fit]	–
COc1ccc(NC(=O)CC2C(=O)N(c3cccc(OC)c3)C(=O)N2CCC2=CCCCC2)cc1 (stereo not drawn)	inconclusive [inhibitor, partial curve, poor fit]	–
CC(C)c1ccc(OCC(O)CN2CCCC2)cc1 (stereo not drawn)	inconclusive [inhibitor, partial curve, poor fit]	–
CCCO/N=C1/C(=O)N(c2ccccc2)c2ccccc21	inconclusive [inhibitor, single point]	–
COc1ccc(OC)c(NC(=O)Nc2cccc3ccccc23)c1	inactive	–
COc1cc(Cl)c(CNC[C@H]2O[C@@H](n3ccc(=O)[nH]c3=O)[C@H](O)[C@@H]2O)c(Cl)c1O	inactive	–
O=C(CN1C(=O)c2ccccc2S1(=O)=O)Nc1ncc(Cl)cc1Cl	inconclusive [inhibitor, partial curve, poor fit]	–
O=C(Nc1ccc(F)cc1)/C(Cl)=C/c1ccccc1	inconclusive [inhibitor, single point]	–
Cc1nc(-c2ccc(C(=O)Nc3ccccc3F)cc2)cs1	inconclusive [inhibitor, single point]	–
COc1ccc(CCNC(=O)c2cc3c(=O)n(C)c4ccccc4c3s2)cc1OC	inactive	–
CC1(C)CC2(OC2c2ccccc2)C(=O)c2ccccc21 (stereo not drawn)	inactive	–
CN(Cc1ccccc1)C(=O)CN1C(=O)NC2(CCCCCCC2)C1=O	inconclusive [inhibitor, single point]	–
COc1ccc(/C=C/c2cc(C(F)(F)F)[nH]c(=O)n2)cc1OC	inconclusive [inhibitor, single point]	–
COc1cc(C(=O)OCc2cccc(S(=O)(=O)N3CCOCC3)c2)ccc1OCC(C)C	inconclusive [inhibitor, partial curve, poor fit]	–
Cc1ccc(/C=C/C2=NN(C)C(=O)CC2)cc1	inactive	–
CSc1ncccc1C(=O)OCc1cccc([N+](=O)[O-])c1	inactive	–
O=C(NCc1ccccn1)c1cc(Cl)ccc1OCc1ccccc1	active: 3.55 µM	–
Cc1ccc(C)c(N2CCN(S(=O)(=O)c3ccc(C(=O)N(C)C)s3)CC2)c1	inconclusive [inhibitor, single point]	–

Structure (SMILES)	Potency	activity change, negative = inhibition
Cc1ccc(-c2nn(-c3ccccc3)cc2NC(=O)c2ccccc2)cc1	inconclusive [inhibitor, single point]	–
CN(CC(O)COc1c(F)cc(Br)cc1F)C1CCCCC1 (stereo not drawn)	inconclusive [inhibitor, single point]	–
COc1ccc(NC(=O)OC(CN2CCCCC2)C(F)(F)F)cc1 (stereo not drawn)	inconclusive [inhibitor, partial curve, poor fit]	–
CCOc1ccc(-n2c(SCC(=O)Nc3ccc(CC)cc3)nc3n[nH]c(C)c3c2=N)cc1	inconclusive [inhibitor, single point]	–
COc1ccc(C(=O)Nc2ccc(Cc3ccncc3)cc2)cc1Br	inconclusive [inhibitor, single point]	–
Cc1ccc(C)c(Cn2nc(-c3ccccc3)ccc2=O)c1	inconclusive [inhibitor, partial curve, poor fit]	–
CCc1ccccc1NC(=O)CCC(=O)N1CC(C)Oc2ccc(C)cc21 (stereo not drawn)	inconclusive [inhibitor, single point]	–
COc1ccc(CCNCc2c(C(=O)O)c(C)n(Cc3cccc(Cl)c3)c2C)c(OC)c1OC	inactive	–
Cc1cccc(OCCC(=O)Nc2ccc(F)c(Cl)c2)c1	inconclusive [inhibitor, single point]	–
Cc1ccc(NC(=O)N2CCN(C/C=C/c3ccccc3)CC2)cc1	inconclusive [inhibitor, partial curve, poor fit]	–
Cc1cc(C)cc(NC(=O)NNC(=O)c2cc3occc3[nH]2)c1	inconclusive [inhibitor, partial curve, poor fit]	–
C=CCNc1nc(-c2ccc(Cl)cc2)cs1	inconclusive [inhibitor, single point]	–
CCc1ccccc1NC(=S)N(CCN1CCOCC1)Cc1ccccc1F	inconclusive [inhibitor, partial curve, poor fit]	–
CC1(C(=O)Nc2ccc(F)c(Cl)c2)Cc2c(-c3ccccc3)ccnc2O1 (stereo not drawn)	inconclusive [inhibitor, single point]	–
O=C(Nc1ccc(Br)cc1)c1ccc(N2C(=O)C3CC=C(Cl)CC3C2=O)cc1 (stereo not drawn)	inconclusive [inhibitor, full curve, poor fit]	–
Cc1csc(CNC(=O)c2ccc(OC3CCN(CCc4ccccc4)CC3)cc2)n1	inconclusive [inhibitor, partial curve, poor fit]	–
COC(=O)c1cc(N=Nc2c(C)[nH]c3ccccc23)cc(C(=O)OC)c1	inactive	–
O=C(N/N=C/c1cccc(O)c1)c1cc(C2CC2)nc2ccccc12	inconclusive [inhibitor, single point]	–
CCCOc1ccc(CC(=O)NNC(=S)Nc2ccccc2)cc1Br	inactive	–
CCOC(=O)[C@H]1[C@H]2COc3ccc(C)cc3[C@@H]2N2C(=O)c3cc(F)c(F)cc3NC(=O)[C@@]12C	inconclusive [inhibitor, partial curve, poor fit]	–
CCOc1ccc(C(=O)NCc2ccco2)cc1	inactive	–
COc1ccc(C)cc1NC(=O)C(OC(=O)CNC(=O)c1cc(C)cc(C)c1)c1ccccc1 (stereo not drawn)	inconclusive [inhibitor, partial curve, poor fit]	–
